This passage reports normalised cell viability results from the supplement of paper PMC6609913.

In the experiment the test system is V-C8 + BRCA2 (BRCA2-proficient hamster cells). Nature of the experiment: normalised cell viability (fraction of plate median); higher = more viable cells (less toxic). As to conditions: 5 µM. The method, boiled down: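 Hamster V-C8 cells with and without restored BRCA2 were exposed in 96-well plates to library drugs at 5 μM for 3 days (screen 1) or 6 days (screen 2). Cell viability was scored by resazurin assay, then median-plate normalised, averaging triplicate wells.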

Structures can show the parent of a compound that is named as a salt. ± gives the standard deviation of the averaged measurements. Whole data set: some 1,300 compounds, median “normalised cell viability” near 1, cut for the lowest 2% near 0.15. The list shows a part of the results.

On to `COC(=O)C1=C(C)NC(C)=C(C(=O)OC(C)C)C1c1cccc2nonc12` (stereo not given) [Isradipine], for which the normalised cell viability runs as follows: (treatment time: 3 days) 1.02 ± 0.032; (treatment time: 6 days) 0.9264 ± 0.0066.
On to `O=C(O)CCCC[C@@H]1SC[C@@H]2NC(=O)N[C@@H]21` [Biotin], for which the normalised cell viability by setting is: (treatment time: 3 days) 1.11 ± 0.048; (treatment time: 6 days) 1.01 ± 0.031.
As to `C[C@@]1(O)CCOC(=O)C1` [Mevalonic-D, L acid lactone], the normalised cell viability was 1.09 ± 0.038 (treatment time: 3 days) and 1.06 ± 0.054 (treatment time: 6 days).
In the case of `COCC(=O)Nc1c(I)c(C(=O)NCC(O)CO)c(I)c(C(=O)N(C)CC(O)CO)c1I` (stereo not given) [Iopromide], the normalised cell viability was 0.877 ± 0.064 (treatment time: 3 days) and 1.029 ± 0.01 (treatment time: 6 days).
Turning to `CC1COc2c(N3CCN(C)CC3)c(F)cc3c(=O)c(C(=O)O)cn1c23` (stereo not given) [Ofloxacin], the normalised cell viability (treatment time: 3 days) is 0.978 ± 0.13 and the normalised cell viability (treatment time: 6 days) worked out at 0.959 ± 0.062.
For the compound `Cn1cnc([N+](=O)[O-])c1Sc1ncnc2[nH]cnc12` [Azathioprine], the normalised cell viability is 0.93 ± 0.032 (treatment time: 3 days) and 0.93 ± 0.045 (treatment time: 6 days).
In the case of `CC(C)C(=O)Nc1ccc([N+](=O)[O-])c(C(F)(F)F)c1` [Flutamide], the normalised cell viability by setting is: (treatment time: 3 days) 0.997 ± 0.041; (treatment time: 6 days) 0.976 ± 0.036.
For `OCCN1C[C@H](O)[C@@H](O)[C@H](O)[C@H]1CO` [Miglitol] the same measures were 1.066 ± 0.0092 and 1.06 ± 0.051.
Turning to `O=S(=O)(O)CCS` [Mesna], the normalised cell viability (treatment time: 3 days) is 1.06 ± 0.07 and the normalised cell viability (treatment time: 6 days) worked out at 1.02 ± 0.024.
On to `CCn1cc(C(=O)O)c(=O)c2cnc(N3CCCC3)nc21` [Piromidic acid], for which the normalised cell viability (treatment time: 3 days) is 1.03 ± 0.069 and the normalised cell viability (treatment time: 6 days) was found to be 0.941 ± 0.03.
As to `CC(C)(C)NC[C@H](O)c1ccc(O)c(CO)c1` [Levalbuterol hydrochloride], the normalised cell viability runs as follows: (treatment time: 3 days) 0.965 ± 0.089; (treatment time: 6 days) 1.004 ± 0.0069.
With `CCCCNC(=O)NS(=O)(=O)c1ccc(C)cc1` [Tolbutamide], the normalised cell viability is, setting by setting: (treatment time: 3 days) 1 ± 0.035; (treatment time: 6 days) 0.973 ± 0.063.
Turning to `O=C(O)c1cc(-c2ccc(F)cc2F)ccc1O` [Diflunisal], the normalised cell viability reads like this: (treatment time: 3 days) 0.992 ± 0.027; (treatment time: 6 days) 1 ± 0.036.
For the compound `CC(=O)[C@H]1CC[C@H]2[C@@H]3C[C@H](C)C4=CC(=O)CC[C@]4(C)[C@H]3[C@@H](O)C[C@]12C` [Medrysone], the normalised cell viability worked out at 1.07 ± 0.026 (treatment time: 3 days) and 1.09 ± 0.058 (treatment time: 6 days).
With `CCOC(=O)OC(C)OC1=C(C(=O)Nc2ccccn2)N(C)S(=O)(=O)c2ccccc21` (stereo not given) [Ampiroxicam], the normalised cell viability is, setting by setting: (treatment time: 3 days) 1 ± 0.034; (treatment time: 6 days) 0.994 ± 0.079.
For `CCN1CC(CCN2CCOCC2)C(c2ccccc2)(c2ccccc2)C1=O` (stereo not given) [Doxapram hydrochloride], the normalised cell viability reads like this: (treatment time: 3 days) 1.036 ± 0.0075; (treatment time: 6 days) 1.04 ± 0.049.
On to `CC(=O)OCC(=O)[C@@]12N=C(C)O[C@@H]1C[C@H]1[C@@H]3CCC4=CC(=O)C=C[C@]4(C)[C@H]3[C@@H](O)C[C@@]12C` [Deflazacort], for which the normalised cell viability reads like this: (treatment time: 3 days) 1.008 ± 0.0088; (treatment time: 6 days) 1.09 ± 0.035.
In the case of `O=C(O)Cc1sc(-c2ccccc2)nc1-c1ccc(Cl)cc1` [Fentiazac], the normalised cell viability worked out at 0.884 ± 0.062 (treatment time: 3 days) and 0.981 ± 0.068 (treatment time: 6 days).
For the compound `OCc1cc(C(O)CNCCCCCCOCCCCc2ccccc2)ccc1O` (stereo not given) [Salmeterol], the normalised cell viability came to 0.881 ± 0.13 (treatment time: 3 days) and 0.864 ± 0.019 (treatment time: 6 days).
On to `CNCCC(Oc1ccc(C(F)(F)F)cc1)c1ccccc1` (stereo not given) [Fluoxetine hydrochloride], for which the normalised cell viability (treatment time: 3 days) was found to be 0.91 ± 0.021 and the normalised cell viability (treatment time: 6 days) amounted to 0.897 ± 0.094.
In the case of `Cc1nc2n(c(=O)c1CCN1CCC(c3noc4cc(F)ccc34)CC1)CCCC2` [Risperidone], the normalised cell viability came to 1.12 ± 0.019 (treatment time: 3 days) and 1.06 ± 0.045 (treatment time: 6 days).
On to `CC(=O)Nc1ccc(CC(=O)O)cc1` [Actarit], for which the normalised cell viability (treatment time: 3 days) was 1.038 ± 0.0059 and the normalised cell viability (treatment time: 6 days) turned out to be 1.07 ± 0.12.
For the compound `CCS(=O)(=O)CCn1c([N+](=O)[O-])cnc1C` [Tinidazole], the normalised cell viability (treatment time: 3 days) is 1.007 ± 0.0078 and the normalised cell viability (treatment time: 6 days) came out at 1.06 ± 0.066.
For `O=C1CCc2cc(OCCCCc3nnnn3C3CCCCC3)ccc2N1` [Cilostazol] the same measures were 1.048 ± 0.0038 and 0.947 ± 0.17.
Take `O=P(O)(O)C(Cl)(Cl)P(=O)(O)O` [Clodronate]: the normalised cell viability (treatment time: 3 days) was 1.07 ± 0.05 and the normalised cell viability (treatment time: 6 days) was determined as 1.01 ± 0.034.
As to `CCCCOc1cc(C(=O)NCCN(CC)CC)c2ccccc2n1` [Dibucaine], the normalised cell viability amounted to 1 ± 0.025 (treatment time: 3 days) and 1 ± 0.094 (treatment time: 6 days).
`CCC1=C(C)CN(C(=O)NCCc2ccc(S(=O)(=O)NC(=O)N[C@H]3CC[C@H](C)CC3)cc2)C1=O` [Glimepiride]: the normalised cell viability (treatment time: 3 days) turned out to be 1.22 ± 0.26 and the normalised cell viability (treatment time: 6 days) was 1.13 ± 0.068.
Take `CC1(C)NC(=O)N(c2ccc([N+](=O)[O-])c(C(F)(F)F)c2)C1=O` [Nilutamide]: the normalised cell viability turned out to be 1.05 ± 0.081 (treatment time: 3 days) and 0.975 ± 0.015 (treatment time: 6 days).
For `CCCCC(CC)CNC(=N)NC(=N)NCCCCCCNC(=N)NC(=N)NCC(CC)CCCC` (stereo not given) [Alexidine dihydrochloride] the same measures were 0.143 ± 0.002 and 0.149 ± 0.011.
Take `COC(=O)[C@@H]1[C@H]2C[C@H]3c4[nH]c5ccccc5c4CCN3C[C@@H]2CC[C@@H]1O` [Yohimbine hydrochloride]: the normalised cell viability (treatment time: 3 days) is 0.989 ± 0.056 and the normalised cell viability (treatment time: 6 days) is 1.02 ± 0.081.
For the compound `Nc1nc(=O)c2c([nH]1)NC[C@@H](CNc1ccc(C(=O)N[C@@H](CCC(=O)O)C(=O)O)cc1)N2C=O` [Folinic acid calcium salt], the normalised cell viability is, setting by setting: (treatment time: 3 days) 1.09 ± 0.0099; (treatment time: 6 days) 1.03 ± 0.055.
For `COc1ccc2cc([C@@H](C)C(=O)O)ccc2c1` [(R) -Naproxen sodium salt], the normalised cell viability (treatment time: 3 days) is 0.919 ± 0.028 and the normalised cell viability (treatment time: 6 days) turned out to be 0.896 ± 0.091.
Turning to `CCOC(=O)C1=C[C@]2(CC)CCCN3CCc4c(n1c1ccccc41)[C@@H]32` [Vinpocetine], the normalised cell viability runs as follows: (treatment time: 3 days) 0.995 ± 0.043; (treatment time: 6 days) 1.12 ± 0.092.
For `COc1cnc(NS(=O)(=O)c2ccc(N)cc2)nc1` [Sulfameter] the same measures were 1.07 ± 0.031 and 1.07 ± 0.26.
Regarding `O=C(O)CCC(=O)Nc1ccc(S(=O)(=O)Nc2nccs2)cc1` [Succinylsulfathiazole], the normalised cell viability (treatment time: 3 days) is 0.979 ± 0.083 and the normalised cell viability (treatment time: 6 days) was found to be 1.04 ± 0.04.
